Source: the supplement of paper PMC8821664
Counter-ions that a name gives are not always drawn. Some of the results follow. Many values rest on one well or one pass, so single values are uncertain. Starred links: 1 amine or outer side, 2 acyl side, 3 side chain; linkers in the order of their positions; H or OH if unused. Positions of bridges follow the written chain, without caps; N, C: chain ends. Non-standard residues stand in square brackets, D forms with d. Residues, ends and D or L forms follow the SMILES beside them. *: point of attachment. hTyr(3S-OH,4S-OH,3'-OSO3H) = N[C@H](C(=O)O)[C@H](O)[C@@H](O)c1ccc(O)c(OS(=O)(=O)O)c1; Orn(4R-OH,5R-OH) = O=C([C@H](C[C@@H](O)[C@@H](O)N[*:3])N[*:1])[*:2]; Pro(3S-OH,4S-Me) = C[C@H]1CN[C@H](C(=O)O)[C@H]1O; X2 = CCCCCOc1ccc(-c2cc(-c3ccc(C(=O)*)cc3)no2)cc1; Gln(3R-OH) = NC(=O)C[C@@H](O)[C@H](N)C(=O)O; Hyp = O=C(O)[C@@H]1C[C@@H](O)CN1

These compounds were tested on Beas-2B AQP5-HiBiT reporter cells (assay: AQP5-HiBiT luminescence relative to vehicle (ratio to vehicle); higher = higher AQP5-HiBiT protein abundance). Details: 10 µM; 18 h.
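Also: monoclonal Beas-2B line stably carrying CMV promoter-driven AQP5-HiBiT, 5,000 cells per well in 384-well plates, lytic HiBiT plus LgBiT NanoLuc luminescence, FDA-approved drug library screen.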

For C=CC[N+]1([C@H]2C[C@H]3[C@@H]4CC[C@H]5C[C@H](O)[C@@H](N6CCOCC6)C[C@]5(C)[C@H]4CC[C@]3(C)[C@H]2OC(C)=O)CCCC1 [Rocuronium bromide], which AQP5-HiBiT luminescence is on record?
Its AQP5-HiBiT luminescence is 0.974.

Which AQP5-HiBiT luminescence does the source give for CC(C)[C@@H]1CC[C@@H](C)C[C@H]1O [L-Menthol] here?
Its AQP5-HiBiT luminescence is 0.742.

Which AQP5-HiBiT luminescence does the source give for N=C1CCCN1Cc1[nH]c(=O)[nH]c(=O)c1Cl [Tipiracil hydrochloride] here?
Its AQP5-HiBiT luminescence is 1.9.

For Cc1ccc([C@@H]2O[C@H](CO)[C@@H](O)[C@H](O)[C@H]2O)cc1Cc1ccc(-c2ccc(F)cc2)s1 [Canagliflozin], which AQP5-HiBiT luminescence is on record?
The AQP5-HiBiT luminescence was 0.485.

COc1ccc2[nH]c([S@@+]([O-])Cc3ncc(C)c(OC)c3C)nc2c1 [Esomeprazole Sodium] was tested. Which AQP5-HiBiT luminescence did it give?
Its AQP5-HiBiT luminescence is 0.935.

For CC(=O)OCC(=O)[C@@]1(O)CC[C@H]2[C@@H]3CCC4=CC(=O)CC[C@]4(C)[C@@]3(F)[C@@H](O)C[C@@]21C [Fludrocortisone acetate], which AQP5-HiBiT luminescence is on record?
Its AQP5-HiBiT luminescence is 0.692.

How did the AQP5-HiBiT luminescence turn out when COc1cc2c(cc1OC)CC(=O)N(CCCN(C)C[C@H]1Cc3cc(OC)c(OC)cc31)CC2 [Ivabradine hydrochloride] was run?
Its AQP5-HiBiT luminescence is 0.734.

NC(=O)N[C@@H](CCC(=O)O)C(=O)O [Carbaglu] was tested. Which AQP5-HiBiT luminescence did it give?
The AQP5-HiBiT luminescence was 0.785.

With CCCCCOc1ccc(-c2cc(-c3ccc(C(=O)N[C@H]4C[C@@H](O)[C@@H](O)NC(=O)[C@@H]5[C@@H](O)[C@@H](C)CN5C(=O)[C@H]([C@H](O)CC(N)=O)NC(=O)[C@H]([C@H](O)[C@@H](O)c5ccc(O)c(OS(=O)(=O)O)c5)NC(=O)[C@@H]5C[C@@H](O)CN5C(=O)[C@H]([C@@H](C)O)NC4=O)cc3)no2)cc1 [Micafungin sodium] (X2-[Orn(4R-OH,5R-OH)]T[Hyp][hTyr(3S-OH,4S-OH,3'-OSO3H)][Gln(3R-OH)][Pro(3S-OH,4S-Me)]; lactam 1-C) as the compound, how does the AQP5-HiBiT luminescence read?
The AQP5-HiBiT luminescence was 0.981.

Which AQP5-HiBiT luminescence does the source give for CC=CC(=O)N(CC)c1ccccc1C [Crotamiton] here?
The AQP5-HiBiT luminescence was 1.03.

With Cc1ncc(CO)c(CO)c1O [Pyridoxine hydrochloride] as the compound, how does the AQP5-HiBiT luminescence read?
Its AQP5-HiBiT luminescence is 1.

Which AQP5-HiBiT luminescence does the source give for CCOc1ccccc1OCCN[C@H](C)Cc1ccc(OC)c(S(N)(=O)=O)c1 [Tamsulosin hydrochloride] here?
Its AQP5-HiBiT luminescence is 1.12.

For Clc1cccc(Cl)c1NC1=NCCN1 [Clonidine hydrochloride], which AQP5-HiBiT luminescence is on record?
The AQP5-HiBiT luminescence was 0.991.

CN(N=O)C(=O)N[C@@H](C=O)[C@@H](O)[C@H](O)[C@H](O)CO [Streptozocin] was tested. Which AQP5-HiBiT luminescence did it give?
Its AQP5-HiBiT luminescence is 0.791.

With CCCCNC(=O)NS(=O)(=O)c1ccc(C)cc1 [Tolbutamide] as the compound, how does the AQP5-HiBiT luminescence read?
Its AQP5-HiBiT luminescence is 1.24.

How did the AQP5-HiBiT luminescence turn out when COc1ccc(Cl)cc1C(=O)NCCc1ccc(S(=O)(=O)NC(=O)NC2CCCCC2)cc1 [Glyburide] was run?
The AQP5-HiBiT luminescence was 0.888.

CC(C)(C)NC(=O)[C@H]1CC[C@H]2[C@@H]3CC[C@H]4NC(=O)C=C[C@]4(C)[C@H]3CC[C@]12C [Finasteride] was tested. Which AQP5-HiBiT luminescence did it give?
Its AQP5-HiBiT luminescence is 0.913.

How did the AQP5-HiBiT luminescence turn out when CCCNC(C)C(=O)Nc1ccccc1C (stereo not given) [Propitocaine hydrochloride] was run?
The AQP5-HiBiT luminescence was 1.05.

Which AQP5-HiBiT luminescence does the source give for CCCC1O[C@@H]2C[C@H]3[C@@H]4CCC5=CC(=O)C=C[C@]5(C)[C@H]4[C@@H](O)C[C@]3(C)[C@]2(C(=O)CO)O1 (stereo not given in full) [Budesonide] here?
Its AQP5-HiBiT luminescence is 0.644.

How did the AQP5-HiBiT luminescence turn out when CN1CCN(CCCN2c3ccccc3Sc3ccc(Cl)cc32)CC1 [Prochlorperazine] was run?
The AQP5-HiBiT luminescence was 1.39.

O=C1OCCN1/N=C/c1ccc([N+](=O)[O-])o1 [Furazolidone] was tested. Which AQP5-HiBiT luminescence did it give?
The AQP5-HiBiT luminescence was 1.13.

How did the AQP5-HiBiT luminescence turn out when Cc1noc(NS(=O)(=O)c2ccc(N)cc2)c1C [Sulfisoxazole] was run?
The AQP5-HiBiT luminescence was 1.16.

How did the AQP5-HiBiT luminescence turn out when CC(C(=O)O)c1cccc(Oc2ccccc2)c1 (stereo not given) [Fenoprofen calcium] was run?
The AQP5-HiBiT luminescence was 0.698.

How did the AQP5-HiBiT luminescence turn out when CCS(=O)(=O)CCn1c([N+](=O)[O-])cnc1C [Tinidazole] was run?
Its AQP5-HiBiT luminescence is 0.793.

With NC12CC3CC(CC(C3)C1)C2 [Amantadine hydrochloride] as the compound, how does the AQP5-HiBiT luminescence read?
The AQP5-HiBiT luminescence was 0.783.

For N#C[C@@H]1C[C@@H]2C[C@@H]2N1C(=O)[C@@H](N)C12CC3CC(CC(O)(C3)C1)C2 [Saxagliptin hydrate], which AQP5-HiBiT luminescence is on record?
The AQP5-HiBiT luminescence was 0.665.

Which AQP5-HiBiT luminescence does the source give for C#C[C@]1(O)CC[C@H]2[C@@H]3CCC4=Cc5oncc5C[C@]4(C)[C@H]3CC[C@@]21C [Danazol] here?
The AQP5-HiBiT luminescence was 0.717.

How did the AQP5-HiBiT luminescence turn out when O=c1[nH]c(=O)n([C@H]2C[C@H](O)[C@@H](CO)O2)cc1C(F)(F)F [Trifluridine] was run?
The AQP5-HiBiT luminescence was 0.911.

How did the AQP5-HiBiT luminescence turn out when CN(C)CCc1c[nH]c2ccc(CS(=O)(=O)N3CCCC3)cc12 [Almotriptan Malate] was run?
Its AQP5-HiBiT luminescence is 0.631.

Which AQP5-HiBiT luminescence does the source give for CN1CCC(=C2c3ccccc3CCn3c(C=O)cnc32)CC1 [Alcaftadine] here?
Its AQP5-HiBiT luminescence is 0.762.

Which AQP5-HiBiT luminescence does the source give for CCCSc1ccc2[nH]c(NC(=O)OC)nc2c1 [Albendazole] here?
The AQP5-HiBiT luminescence was 2.66.

Which AQP5-HiBiT luminescence does the source give for CSc1ccc2c(c1)N(CCC1CCCCN1C)c1ccccc1S2 (stereo not given) [Thioridazine hydrochloride] here?
Its AQP5-HiBiT luminescence is 1.45.

Which AQP5-HiBiT luminescence does the source give for CCC(C)(C)C(=O)O[C@H]1C[C@@H](C)C=C2C=C[C@H](C)[C@H](CC[C@@H]3C[C@@H](O)CC(=O)O3)[C@H]21 [Simvastatin] here?
The AQP5-HiBiT luminescence was 1.11.

How did the AQP5-HiBiT luminescence turn out when CC(=O)/N=c1/sc(S(N)(=O)=O)nn1C [Methazolamide] was run?
The AQP5-HiBiT luminescence was 1.05.

Which AQP5-HiBiT luminescence does the source give for CNC(=C[N+](=O)[O-])NCCSCc1csc(CN(C)C)n1 [Nizatidine] here?
The AQP5-HiBiT luminescence was 1.06.

COc1cc([C@@H]2c3cc4c(cc3[C@@H](O[C@@H]3O[C@@H]5CO[C@@H](C)O[C@H]5[C@H](O)[C@H]3O)[C@H]3COC(=O)[C@H]23)OCO4)cc(OC)c1O [Etoposide] was tested. Which AQP5-HiBiT luminescence did it give?
Its AQP5-HiBiT luminescence is 0.559.

Which AQP5-HiBiT luminescence does the source give for Cc1nnc(SCC2=C(C(=O)O)N3C(=O)[C@@H](NC(=O)Cn4cnnn4)[C@H]3SC2)s1 [Cefazolin sodium salt] here?
The AQP5-HiBiT luminescence was 1.2.

With CCCCN1CCCC[C@H]1C(=O)Nc1c(C)cccc1C [Levobupivacaine] as the compound, how does the AQP5-HiBiT luminescence read?
Its AQP5-HiBiT luminescence is 0.784.

Which AQP5-HiBiT luminescence does the source give for CCC(=O)OCC(=O)[C@@]1(OC(=O)CC)[C@@H](C)C[C@H]2[C@@H]3CCC4=CC(=O)C=C[C@]4(C)[C@@]3(Cl)[C@@H](O)C[C@@]21C [Beclomethasone dipropionate] here?
Its AQP5-HiBiT luminescence is 0.579.

COCCc1ccc(OCC(O)CNC(C)C)cc1 (stereo not given) [Metoprolol Succinate (ToprolX)] was tested. Which AQP5-HiBiT luminescence did it give?
Its AQP5-HiBiT luminescence is 1.96.
